Reference: a collection of fitness landscapes (doi:10.1016/j.celrep.2020.107928)
Over roughly 81,000 sequences, “one-hybrid fitness for binding NBS DNA” has its median near -0.1; the highest 2% begin near 0.36. Some of the results follow.

B1: Caulobacter ParB omega fusion; a variant is named by its letters at X, in order, B8GW30 (parent)
chain: MESVVVGEPGMSEGRRGLGRGLSALLGEVDAAPAQAPGEQLGGSREAPIEILQRNPDQPRRTFREEDLEDLSNSIREKGVLQPILVRPSPDTAGEYQIVAGERAWRAAQRAGLKTVPIMVRELDDLAVLEIGIIENVQRADLNVLEEALSYKVLMEKFERTQENIAQTIGKSXSHVANXMRLLXLPDEVQSYLVSGELTAXHARAIAAAADPVALAKQIIEGGLSVRETEALARKAPNLSAGKSKGGRPPRVKDTDTQALESDLSSVLGLDVSIDHRGSTGTLTITYATLEQLDDLCNRLTRGI

Variants of: B1
Assay: one-hybrid fitness for binding NBS DNA (the Noc-binding site; scaled: cognate 1, non-cognate 0); higher = stronger binding
Conditions: with NBS DNA site
How it was run: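 On M9-minus-histidine containing 0.1 mM IPTG and 5 mM 3-AT, E. coli USO cells with a HIS3 reporter, site 19 bp from the promoter, grew 48 hours at 37°C to select Caulobacter ParB libraries randomised at four specificity codons. Plasmids from before and after were Illumina-sequenced, with three replicate libraries pooled and variants under 10 reads left out. Fitness is the log change in variant-to-wild-type read ratio, rescaled against cognate and non-cognate.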

one-hybrid fitness for binding NBS DNA, 0.251:
GTRR

one-hybrid fitness for binding NBS DNA, 0.253:
RRMQ

one-hybrid fitness for binding NBS DNA, ≤ 0.2:
QGRM
RIMN
QHTL
SARR
GRWR
ADMG
RHTH
TWVG
SPCG
IFPS
GGWG
EHNI
RHVM
LSLP
DDVN
YTNV
DTSL
GARN
TLWR
QGSY
PHYE
NTVC
HHHT
PHQA
YYHS
AFRC
ITAG
MQRN
PNHN
QQAW
CFAY
ESQS
DACM
HDKY
HHTN
QISN
STTG
QCQE
AYFM
SFHY
VDPL
NLNV
TQGV
GKDR
YGSN
YSLD
SRIG
SGEL
ARCI
PAPR
VAFG
WYNA
VDNR
WDAR
LYTE
AAMD
AAWQ
AGTC
QPRT
DYLY
TPER
HRKS
DKIS
GAVC
TVMM
WGYS
EVNA
LTNT
TSVR
YYQG
TFQG
CYSC
WKNS
YGRV
QTGI
PFCG
DTAW
DAMN
AFHG
QMYM
QPDN
TNPT
QGMR
QLHV
CVAL
QSCM
VKTP
KLEG
FTGL
RIDM
DVTQ
DNGS
VVMM
PPKF
PVGN
PNHA
QVWE
RTTQ
QQGP
WLYI
VNQC
TAAV
KPYC
EYRS
WPEN
EAWS
QPLI
MLSV
LYTH
MALR
IINF
IRKN
LFTK
GAMF
RNYN
RNVN
HRTM
LPVK
HTYF
DRMF
QMPQ
PYSC
PTPF
YHFC
TDYR
ILGT
GGQR
WVLC
VERR
QHPG
PTTR
KALT
NWSN
TRCC
GDRT
RTAP
TDQL
TTHF
QKDI
IKMC
LDFI
VTMY
FTHG
TLNA
YNNG
DTNP
KAIC
LMNV
NGCS
NHKG

one-hybrid fitness for binding NBS DNA, 0.272:
RWKT
